# Experimental data as given in the supplement of paper PMC11417369.
# ± gives the standard deviation of the averaged measurements. Some of the results follow.
# Test system: PfAP2-EXP AP2 domain (GST-tagged)
# Test: gcPBM binding intensity (ln(normalized median fluorescence intensity)); higher = stronger DNA binding
# Summary of the method: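 GST-fused DNA-binding domains of P. falciparum, expressed in E. coli, were applied at about 25 μg on average for 1 h to an Agilent 4 × 180k array of primer-extended double-stranded 36-bp intergenic genomic probes and negative controls. Binding intensity is the highest Masliner-normalised natural-log median intensity across replicate spots of either probe orientation, measured with Alexa488 anti-GST antibody and a 488 nm scan.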
row,Sequence,gcPBM binding intensity (ln)
1,TAAAAACAAAAATGTTGTACATAATATAAAACAATT [XGTACX_site6380],8.47 ± 0.33
2,CACACAATGGCTAGCTGTACATAATATATATCTACA [XGTACX_site4691],8.71 ± 0.38
3,GAAAATAAAATAAATGCATGTAAATTTAATGTAATG [TGCATGCA_site996],9.19 ± 0.42
4,TATATAAATATACAAACACACATACAAACATATATA [CACACA_site4754],8.86 ± 0.48
5,AAAAAAAAAAAATGTGCATGCTATATATATATATAT [TGCATGCA_site727],10.2 ± 0.16
6,TTAACAAATAGACACACACACACACGCAAAAAAAAA [CACACA_site6387],8.74 ± 0.54
7,TTTTTTTTTCATTATTGTACATTGAAACTTCATTTT [XGTACX_site6041],8.74 ± 0.37
8,ATATATATATTTACATGTACACATCTATATATAAAC [XGTACX_site5581],9.445 ± 0.049
9,TTTTTTTTTTGATGTTGTACATATATATTATATAAT [XGTACX_site2765],8.55 ± 0.4
10,GCTATTTATTTATATTGTACTTTTTTTTTTTTTTTT [XGTACX_site3624],8.79 ± 0.35
11,TATTTTGTTCTTTCCACACACAAATACCTATCTTGT [CACACA_site7833],9.03 ± 0.43
12,ATTCGTGAACTAGCCAAACACACGAAAAAAAAAAAA [CACACA_site3342],8.41 ± 0.28
13,TTTTATTGATTATTCATAAATATGCTATTCATCTAA [CACACA_negctrl_site1084],8.21 ± 0.31
14,ATGTAACATAGGAAATGTACATATAAATATAATTTA [XGTACX_site6452],8.55 ± 0.34
15,TTTTTTTTTGGGGGTGCATGCAAGACATATATTTAA [TGCATGCA_site228],10.43 ± 0.028
16,CATACATATATATATACACACATACATATATATACA [CACACA_site8165],8.57 ± 0.33
17,TATTTTAATATTTGTAGTACAGATTGAAATGACGAA [XGTACX_site4805],8.64 ± 0.34
18,AAAATGTATGGAATGCTCTTTTTTAAGTATTATATA [GTGCAC_negctrl_site175],8.03 ± 0.28
19,ATATACGCATTAATAACACACAATATGATAACAAAT [CACACA_site3623],8.74 ± 0.34

row,Sequence,gcPBM binding intensity (ln)
1,AATATAATCTTTCAAAAGAAAAAGACTTCATGAAAA [CACACA_negctrl_site1331],8.35 ± 0.61
2,GTAGGTTTATATTGTAGTACATACAAACGTTAACAA [XGTACX_site5476],8.85 ± 0.46
3,ACAAAATTGATATATGCACACATATATATATTAAAT [CACACA_site8152],8.37 ± 0.3
4,ATACGTATTTTCTTTTGTACATATATATAAAATATT [XGTACX_site2675],8.76 ± 0.57
5,TTTATTTATTATTAAAGTACTAAAATATATTATTAT [XGTACX_site4887],8.18 ± 0.28
6,AATATTGCACCATTTTGTACATAATATATTCAAATA [XGTACX_site475],8.89 ± 0.3
7,TATATTTATTAGTTTCGTACGTACAAAGTTATTTTT [XGTACX_site8847],8.69 ± 0.36
8,ATATTAAAATTTTAATGTACATGCGTATGTAGGAAT [XGTACX_site1673],9.12 ± 0.34
9,AACATATATTTTTAATGTACAAGGTTGTAAAGAACT [XGTACX_site1405],8.74 ± 0.34
10,TATATTATATTTTTATGTACTTATTTATTTTGTTTC [XGTACX_site6145],8.67 ± 0.33
11,ATTGTATTAAAATGCACACATATCAAGAGGAATTTT [CACACA_site283],8.34 ± 0.35
12,ATGTATATATTCAATTGTACATGTTATATTTACACA [XGTACX_site1125],8.47 ± 0.46
13,TGTAAAATATAAAAAGTGCATTTCTTTTAATATGAT,8.49 ± 0.24
14,AAAGAATAATTAAATACACACATATTGCAGTAAAAA [CACACA_site7201],8.66 ± 0.38
15,CAATTGATATTGAAATGTACTTTTTAGATGAACCTT [XGTACX_site2354],8.35 ± 0.49
16,TTAAATAATGCCACCAGTACCCACTGAAAGAAAAAA [XGTACX_site5013],8.65 ± 0.47
17,TATATTAAAATTTACTGTACTTTTTTTATTTTAAAA [XGTACX_site4077],8.41 ± 0.35
18,AAAGATATAAATTACTGTACTAATGAAATTGGTAAA [XGTACX_site3582],8.62 ± 0.19
19,AATCCTTAAAATTAACGTACGAAATGAATTTATTAA [XGTACX_site956],8.45 ± 0.42

row,Sequence,gcPBM binding intensity (ln)
1,TGGAGGTCATTACACAGTACCCAGGAAATCTACGGA [XGTACX_site2004],8.66 ± 0.51
2,AAACCGTGGGAGCACACACACACACCCACCCATATA [CACACA_site332],8.57 ± 0.57
3,ACAAAACAAAACAAAAGTACACAAAATAAATAAGAT [XGTACX_site6497],9.01 ± 0.47
4,ATAATAACAAAATATTAACACACATAACATATTATA [CACACA_site8906],8.48 ± 0.26
5,TTCTGTCAATATGCTTGTACGAAATATTTCGTAATT [XGTACX_site3182],8.87 ± 0.4
6,AAAATAAACCCAGACACACTCATTAAAAAATATCAT [CACACA_site5903],8.46 ± 0.39
7,TATTAATCCTTTTGCTTGGAAACATTCAAAAGGAAG [CACACA_negctrl_site1129],8.25 ± 0.35
8,ATAAATAAATACTAGGCACACACACCGATATATATA [CACACA_site8649],8.85 ± 0.38
9,ATATATATAAAATATGGTACAGAAAAAGTCTTGTTT [XGTACX_site8868],9.23 ± 0.52
10,AATATAAAAAATAATACACACACATGGCGACAAAAT [CACACA_site8765],9.11 ± 0.51
11,ATGTAAGTAATTATCTGTACACATAATATATATATA [XGTACX_site2618],9.62 ± 0.13
12,TTTGAGTTACTATTCACACAAAATGGATAAATTAAT [CACACA_site5626],8.41 ± 0.42
13,CACATAAATAATTAAACACACATTGTTCTAGACAAT [CACACA_site2378],8.44 ± 0.4
14,TAGTTTTGAAAACAAACACACAAAAAAAAAAAAAAA [CACACA_site1692],8.14 ± 0.39
15,TATATAGGTATATATACACACAACGGTTATAAATAT [CACACA_site4759],8.79 ± 0.48
16,TATAAAGACACGAAAACACACATATGTAAATATATA [CACACA_site8056],8.92 ± 0.59
17,AGGATAAAAGTTATGGTGCATTAACCTATTTAAATA,9.02 ± 0.17
18,TACATATTACTATTCAGTACATATTTTTTTTTCATT [XGTACX_site7468],8.4 ± 0.26
19,AATTTTATTACTTTTACACACCTATATATCATTCAT [CACACA_site7525],8.78 ± 0.49
